The other results are listed elsewhere or left out. The energies were worked out here from pooled read counts, against the library average; single values are noisy.
target: T1, Pho4 (S. cerevisiae) (UniProt P07270); assay: relative binding free energy (BET-seq); higher = weaker binding; conditions: reference: library average
T1 sequence: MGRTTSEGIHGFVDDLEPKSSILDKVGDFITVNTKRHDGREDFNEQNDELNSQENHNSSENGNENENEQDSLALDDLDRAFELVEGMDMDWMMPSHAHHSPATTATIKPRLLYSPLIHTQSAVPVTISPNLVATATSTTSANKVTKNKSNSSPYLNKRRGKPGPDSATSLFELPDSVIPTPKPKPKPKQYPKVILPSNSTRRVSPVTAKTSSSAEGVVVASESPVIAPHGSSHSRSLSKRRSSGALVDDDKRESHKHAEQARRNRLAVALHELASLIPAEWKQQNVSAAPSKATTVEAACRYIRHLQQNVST

Row | Sequence | relative binding free energy
1 | TTTTTCACGTGCTTGG | 0.25 kcal/mol
2 | TTGACCACGTGGGATG | -0.15 kcal/mol
3 | TAAGTCACGTGCTAGG | -0.03 kcal/mol
4 | ACTGGCACGTGGCGTG | -0.3 kcal/mol
5 | ATGTACACGTGTGGCA | 0.02 kcal/mol
6 | TGGTACACGTGGATGC | -0.02 kcal/mol
7 | GGGATCACGTGAGGGG | 0.32 kcal/mol
8 | GTTCGCACGTGGTCAT | -0.02 kcal/mol
9 | TTGATCACGTGCGCGG | -0.08 kcal/mol
10 | GCTTGCACGTGGGGTA | -0.09 kcal/mol
11 | TGTGGCACGTGAATAT | 0.05 kcal/mol
12 | AATTACACGTGTGTTG | 0.1 kcal/mol
13 | TGTCTCACGTGTGGCG | 0.18 kcal/mol
14 | GGAGGCACGTGACTGG | -0.11 kcal/mol
15 | AGGGGCACGTGTAGGT | -0.07 kcal/mol
16 | ATTAGCACGTGATGTG | 0.01 kcal/mol
17 | TAGTTCACGTGCGCGT | 0.09 kcal/mol
18 | GGTTACACGTGGTAGT | 0.23 kcal/mol
19 | ATTACCACGTGTGGGA | -0.04 kcal/mol
20 | TGAGTCACGTGTCGGC | 0.15 kcal/mol
21 | ACGGTCACGTGGTAGT | 0.11 kcal/mol
22 | TATATCACGTGGAGTG | 0.3 kcal/mol
23 | TATGGCACGTGGTGGC | -0.03 kcal/mol

Row | Sequence | relative binding free energy
24 | AGCCGCACGTGGTGGT | -0.16 kcal/mol
25 | TTTTGCACGTGGAACT | 0.15 kcal/mol
26 | GAGGGCACGTGAGGAA | 0.12 kcal/mol
27 | AGTTACACGTGGGCTA | -0.12 kcal/mol
28 | ATGGACACGTGTTAGG | -0.03 kcal/mol
29 | GGTACCACGTGGTGGG | -0.1 kcal/mol
30 | TTTGTCACGTGGCATC | 0.07 kcal/mol
31 | TGATACACGTGGTGCG | -0.12 kcal/mol
32 | TATGACACGTGTGATA | 0.08 kcal/mol
33 | GGCTTCACGTGAGAGT | 0.36 kcal/mol
34 | ATTGTCACGTGTTCAT | 0.15 kcal/mol
35 | TGAGGCACGTGAGTTA | 0.05 kcal/mol
36 | GGTGGCACGTGTAAAA | 0.12 kcal/mol
37 | ATATCCACGTGTGGGG | -0.07 kcal/mol
38 | TGGGGCACGTGGCCGT | -0.22 kcal/mol
39 | GGGCGCACGTGCGGGT | -0.17 kcal/mol
40 | TAGAGCACGTGTGAGT | -0.07 kcal/mol
41 | GGTAGCACGTGGTCAG | -0.24 kcal/mol
42 | ACAATCACGTGTGTTT | 0.15 kcal/mol
43 | CGTGGCACGTGCGATT | -0.05 kcal/mol
44 | ATTGCCACGTGACGGG | 0 kcal/mol
45 | AGTTGCACGTGGAACG | 0.07 kcal/mol
46 | CGTAGCACGTGATGGT | 0.03 kcal/mol

Row | Sequence | relative binding free energy
47 | GCAGTCACGTGGGTAT | 0.06 kcal/mol
48 | TTGTACACGTGATAGG | 0.19 kcal/mol
49 | TAATTCACGTGACATG | 0.46 kcal/mol
50 | TTTCTCACGTGGTATT | 0.2 kcal/mol
51 | TCCGTCACGTGTGGTA | 0.2 kcal/mol
52 | CAAGGCACGTGCGGTT | -0.12 kcal/mol
53 | GAGTACACGTGTTGTC | 0.24 kcal/mol
54 | TTATTCACGTGTAAGT | 0.36 kcal/mol
55 | GCATTCACGTGTTGTT | 0.25 kcal/mol
56 | CGTGGCACGTGCGTTG | -0.19 kcal/mol
57 | TATGACACGTGTACGT | -0.05 kcal/mol
58 | GCTGTCACGTGGTGAT | 0 kcal/mol
59 | TGTAACACGTGTATTG | -0.05 kcal/mol
60 | GTCTACACGTGAGTGG | 0.41 kcal/mol
61 | GATATCACGTGGTGTT | 0.1 kcal/mol
62 | AACTGCACGTGTGTTG | -0.02 kcal/mol
63 | GTTGACACGTGTGGTA | 0.09 kcal/mol
64 | TAATACACGTGGGAGG | -0.03 kcal/mol
65 | TCCTTCACGTGGTGTG | 0.08 kcal/mol
66 | TTTTACACGTGGGGAT | 0.08 kcal/mol
67 | AGTGGCACGTGGGATT | -0.02 kcal/mol
68 | GAGGACACGTGGTATT | 0.03 kcal/mol
69 | TTTGTCACGTGATGGT | 0.15 kcal/mol

Row | Sequence | relative binding free energy
70 | TTATTCACGTGTTAGG | 0.23 kcal/mol
71 | AGTGTCACGTGAGGGA | 0.09 kcal/mol
72 | GTATACACGTGGTTAT | 0.06 kcal/mol
73 | ATGGGCACGTGATCTT | -0.19 kcal/mol
74 | GGGGCCACGTGATAGG | 0.16 kcal/mol
75 | AGGAGCACGTGGACTT | 0.18 kcal/mol
76 | GGGTGCACGTGTATCT | -0.04 kcal/mol
77 | CGTTGCACGTGAGTTG | 0.09 kcal/mol
78 | GGCGTCACGTGGTGGT | 0.07 kcal/mol
79 | GGTGACACGTGGCGTA | -0.18 kcal/mol
80 | TAGTTCACGTGGTGTT | 0.21 kcal/mol
81 | TGGGGCACGTGGATAA | -0.17 kcal/mol
82 | ATGACCACGTGGGTTT | -0.22 kcal/mol
83 | TGCTGCACGTGGTGAG | -0.16 kcal/mol
84 | TTAAACACGTGAGTGA | 0.38 kcal/mol
85 | AGGTACACGTGATTTG | 0.14 kcal/mol
86 | AGGATCACGTGAGGCG | 0.18 kcal/mol
87 | GATTTCACGTGAAGGT | 0.49 kcal/mol
88 | TTTCACACGTGTTTAT | 0.14 kcal/mol
89 | GGTCGCACGTGAAATG | 0.34 kcal/mol
90 | GTTTTCACGTGGGGAA | 0.08 kcal/mol
91 | CAGGGCACGTGTGAGG | 0.03 kcal/mol
92 | AAAAACACGTGTTGGT | 0.02 kcal/mol

Row | Sequence | relative binding free energy
93 | TGTATCACGTGGTTGA | 0.14 kcal/mol
94 | TTAACCACGTGGAGGA | 0.16 kcal/mol
95 | TAGCTCACGTGGGCTG | 0.14 kcal/mol
96 | ATTTGCACGTGTGTTC | 0.05 kcal/mol
97 | AGATGCACGTGAGAGT | 0.06 kcal/mol
98 | TTGTACACGTGGTTCT | 0.08 kcal/mol
99 | GTTTGCACGTGGCCGG | -0.04 kcal/mol
100 | AAGTTCACGTGGGGCC | 0.21 kcal/mol
101 | ATGGTCACGTGGTTTA | 0.07 kcal/mol
102 | CGTATCACGTGGTAGT | 0.06 kcal/mol
103 | TAAAGCACGTGGAGTT | 0.01 kcal/mol
104 | AGTAGCACGTGGTTTA | -0.21 kcal/mol
105 | TTGTGCACGTGAGTGA | 0.18 kcal/mol
106 | GGTTGCACGTGGGGCC | -0.07 kcal/mol
107 | GGGTTCACGTGGCTAC | 0.4 kcal/mol
108 | AGTGGCACGTGAGTTA | 0.15 kcal/mol
109 | CTGTTCACGTGTATCG | 0.17 kcal/mol
110 | TGTGGCACGTGTGGCA | -0.13 kcal/mol
111 | GTTATCACGTGGGGAA | 0.06 kcal/mol
112 | GGCACCACGTGGAGGT | 0.01 kcal/mol
113 | GGATTCACGTGACAGG | 0.42 kcal/mol
114 | TATTCCACGTGTATTT | 0.11 kcal/mol
115 | TTTTCCACGTGGTCTG | -0.02 kcal/mol
